# Source: PubChem BioAssay AID1461 (National Center for Advancing Translational Sciences (NCATS), 2008)
# In all, about 220,000 compounds went through this assay and about 2,300 (1%) were called active. Inconclusive means that the source gave no clear call. Such entries were picked first, then a sample of the others. Calls follow the shape of the dose curve; as a rule, active = well fitted inhibition curve with a large enough effect; inconclusive = small, poorly fitted or top-dose-only effect, or effect the other way; inactive = no such curve, though single readings can be large or run the other way. Potencies beside an inconclusive call are fits to weak or partial responses and may not hold up.
# Target: Neuropeptide S receptor (Homo sapiens) (UniProt Q6W5P4)
# Assay: qHTS Assay for Antagonists of the Neuropeptide S Receptor: cAMP Signal Transduction; also: nearly all actives have a fitted effect of over 50% in size
# Conditions: CHO-NPSR cells, cAMP TR-FRET, antagonist mode; activity change, negative = inhibition: at 38.3 µM (top of the series) unless noted
# % is scaled to controls: 0 for no effect and ±100 for the full control effect; potency is read from the fitted curve at half-maximal effect; tags tell the direction and shape of the fitted curve.
# UniProt Q6W5P4, sequence (Q6W5P4 whole entry, looked up): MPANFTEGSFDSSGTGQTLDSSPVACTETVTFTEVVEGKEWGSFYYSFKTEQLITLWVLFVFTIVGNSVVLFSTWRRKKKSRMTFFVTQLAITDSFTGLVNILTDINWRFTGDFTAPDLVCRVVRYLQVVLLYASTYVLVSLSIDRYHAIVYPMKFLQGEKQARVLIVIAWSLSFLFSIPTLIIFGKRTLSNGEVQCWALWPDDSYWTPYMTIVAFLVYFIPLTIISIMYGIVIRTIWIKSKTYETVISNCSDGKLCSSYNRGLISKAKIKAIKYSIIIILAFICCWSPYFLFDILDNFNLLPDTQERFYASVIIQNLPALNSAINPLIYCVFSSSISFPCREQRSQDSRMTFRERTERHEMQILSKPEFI
Compound,Potency,"activity change, negative = inhibition"
COc1ccc(OC)c2c1sc(=NC(=O)C1COc3ccccc3O1)n2C (stereo not given),"inconclusive: 12.6 µM [inhibitor, single point]",
N#CCCSc1ncnc2c1oc1ccccc12,"inconclusive: 12.6 µM [activator, partial curve]",
CC(C(=O)NC1CCCC1)N(C(=O)c1ccc(-c2ccccc2)[nH]1)c1ccccc1F (stereo not given),"inconclusive: 10 µM [inhibitor, single point]",
CC[n+]1c(/C=C2\C=C(C)CC(C)(C)C2)sc2ccccc21,"inconclusive: 15.8 µM [inhibitor, single point]",
CCc1nc2c(sc3nc4c(cc32)COC(C)(C)C4)c(=O)n1Cc1ccco1,"inconclusive: 25.1 µM [inhibitor, single point]",
Cn1c(SCC(=O)Nc2cccc(S(=O)(=O)NC3=NCCCCC3)c2)nnc1-c1ccccc1,inactive,
Cc1cc(CC(C)C)n(-c2nc3ccccc3c(=O)n2OCc2ccccc2)n1,"inconclusive: 12.6 µM [inhibitor, partial curve]",
CCOC(=O)/C(=N/Nc1ccccc1)c1csc(Nc2ccccc2)n1,"inconclusive: 25.1 µM [inhibitor, single point]",
Oc1ccccc1N1CCN(c2ncnc3sc(-c4ccccc4)cc23)CC1,"inconclusive: 25.1 µM [activator, single point]",
CCCC(=O)O[C@]1(C(=O)CCl)[C@@H](C)C[C@H]2[C@@H]3CCC4=CC(=O)C=C[C@]4(C)[C@@]3(F)C(=O)C[C@@]21C,active: 3.16 µM,
CCOC(=O)C1=C(c2ccccc2)NC(=O)NC1c1cc(Cl)c(O)c(OC)c1 (stereo not given),inactive,
COc1ccc(CN(C(=S)Nc2ccccc2)C2CC(=O)N(c3ccc(F)cc3)C2=O)cc1 (stereo not given),"inconclusive: 12.6 µM [inhibitor, single point]",
CO/N=C\c1cc(C(=O)c2ccc(Cl)cc2Cl)cn1C,inactive,
CCN(CC)c1ccc(NC(=O)Nc2ccc(C(C)=O)cc2)cc1,inactive,
C/C(=N\NC(=O)CSc1nc2ccccc2[nH]1)c1ccncc1,inactive,
COc1ccc(-n2c(SCc3nnc(-c4ccccc4)o3)nnc2-c2ccccc2)cc1,"inconclusive: 10 µM [inhibitor, single point]",
CC(=O)c1oc2ccccc2c1NC(=O)COC(=O)c1ccc(-n2nc(C)cc2C)cc1,"inconclusive: 25.1 µM [inhibitor, single point]",
Cc1ccc(NC(=O)CN(C)C(=O)CSc2nc3ccccc3c(=O)n2Cc2ccco2)cc1,"inconclusive: 15.8 µM [inhibitor, single point]",
CC1CCN(c2nnc(-c3ccccc3)c3ccccc23)CC1,"inconclusive: 10 µM [inhibitor, single point]",
NS(=O)(=O)c1ccc(N/N=C2/CCCCC2C2CCCCC2)c([N+](=O)[O-])c1 (stereo not given),"inconclusive: 12.6 µM [inhibitor, single point]",
O=S(=O)(Nc1cc(Cl)ccc1N1CCCCC1)c1cccs1,"inconclusive: 10 µM [inhibitor, partial curve]",
Cc1ccc(OCC(=O)Nc2ccc(O)c(-c3nc4ccccc4o3)c2)cc1,"inconclusive: 12.6 µM [activator, single point]",
CCN(CC)C(=O)c1ccc(C)c(Br)c1,inactive,

Compound,Potency,"activity change, negative = inhibition"
CC1=Nn2c(nc(-c3ccccc3)c2-c2ccccc2)N(CC(N)=O)C(=O)C1,inactive,
Cc1ccc(SCc2cc(=O)[nH]c(N3CCN(C)CC3)n2)cc1,"inconclusive: 3.16 µM [inhibitor, single point]",
O=C(Nc1ccc(N2CCN(C(=O)c3ccc(Cl)cc3)CC2)cc1)c1ccc(Br)o1,inactive,
COc1ccc(S(=O)(=O)NCc2ccco2)c2ccccc12,"inconclusive: 12.6 µM [inhibitor, partial curve]",
CCN(C(=O)CSc1nc2cc(Cl)ccc2c(=O)n1Cc1ccco1)C1CCS(=O)(=O)C1 (stereo not given),inactive,
COC(=O)c1cc2oc3ccccc3c2n1CC(=O)N1CCCc2ccccc21,"inconclusive: 10 µM [inhibitor, single point]",
COc1ccc(NC(=O)c2ccc(-c3ccccc3C(F)(F)F)o2)cc1,inactive,
Cc1cc(Cl)c(S(=O)(=O)Nc2ccc3c(c2)OCCO3)cc1OCC(=O)NC1CCCCC1,,inconclusive: -31.2% [inhibitor] [at 46.1 µM]
Cc1cccc(CN2CCN(c3nc4nonc4nc3NC3CC3)CC2)c1,inactive,
CCCC1CC(C)(C(=O)CSc2n[nH]c(-c3ccccc3)n2)OC1=O (stereo not given),inactive,
COc1cccc(N(C(=O)c2ccco2)c2nc(-c3sc(NC(=O)c4ccco4)nc3C)cs2)c1,"inconclusive: 10 µM [inhibitor, single point]",
CC(=O)NC(=C(Cl)Cl)S(=O)(=O)c1ccccc1,inactive,
NC(=O)c1ccc(NC(=O)COC(=O)CCc2ccc(S(=O)(=O)N3CCCCC3)cc2)cc1,inactive,
CC(C)C[C@H](NC(=O)OC(C)(C)C)c1nnc(SCc2ccccc2)o1,"inconclusive: 12.6 µM [inhibitor, single point]",
C=CCn1c(SCc2ccc(C(=O)Nc3ccccc3)cc2)nnc1-c1ccccc1,"inconclusive: 20 µM [inhibitor, single point]",
C=C(C)COc1ccc(-c2nc(N)ncc2Oc2ccccc2OCC)c(O)c1,"inconclusive: 12.6 µM [inhibitor, single point]",
CCCCCC(=O)NC(=S)Nc1ccc(N2CCCCC2)c(Cl)c1,"inconclusive: 20 µM [inhibitor, partial curve]",
Cc1ccccc1-c1nc(S(=O)(=O)c2ccc(Br)cc2)c(NCc2cccnc2)o1,inactive,
Cc1cc([N+](=O)[O-])nn1CC(=O)N/N=C/c1ccccc1Br,inactive,
CC(C)n1nc(C(=O)Oc2cccc(Cl)c2Cl)c2ccccc2c1=O,"inconclusive: 12.6 µM [inhibitor, single point]",
CCOc1ccc(S(=O)(=O)N(CC(=O)Nc2cc(C)on2)Cc2ccccc2Cl)cc1,"inconclusive: 10 µM [inhibitor, partial curve]",
Cc1nc2n(n1)C(c1ccccc1)C1=C(CC(c3ccco3)CC1=O)N2 (stereo not given),inactive,
